Out of some 310,000 compounds screened, about 2,200 (0.71%) showed an effect of 50% or more. Effects have a minus sign here. Some of the results follow.
What follows are compounds tested against human ether-à-go-go-related gene (hERG) potassium channel (human, UniProt Q12809) (assay: primary screen, population patch clamp on CHO cells stably expressing hERG).
Chain of human ether-à-go-go-related gene (hERG) potassium channel (Q12809 whole entry, looked up): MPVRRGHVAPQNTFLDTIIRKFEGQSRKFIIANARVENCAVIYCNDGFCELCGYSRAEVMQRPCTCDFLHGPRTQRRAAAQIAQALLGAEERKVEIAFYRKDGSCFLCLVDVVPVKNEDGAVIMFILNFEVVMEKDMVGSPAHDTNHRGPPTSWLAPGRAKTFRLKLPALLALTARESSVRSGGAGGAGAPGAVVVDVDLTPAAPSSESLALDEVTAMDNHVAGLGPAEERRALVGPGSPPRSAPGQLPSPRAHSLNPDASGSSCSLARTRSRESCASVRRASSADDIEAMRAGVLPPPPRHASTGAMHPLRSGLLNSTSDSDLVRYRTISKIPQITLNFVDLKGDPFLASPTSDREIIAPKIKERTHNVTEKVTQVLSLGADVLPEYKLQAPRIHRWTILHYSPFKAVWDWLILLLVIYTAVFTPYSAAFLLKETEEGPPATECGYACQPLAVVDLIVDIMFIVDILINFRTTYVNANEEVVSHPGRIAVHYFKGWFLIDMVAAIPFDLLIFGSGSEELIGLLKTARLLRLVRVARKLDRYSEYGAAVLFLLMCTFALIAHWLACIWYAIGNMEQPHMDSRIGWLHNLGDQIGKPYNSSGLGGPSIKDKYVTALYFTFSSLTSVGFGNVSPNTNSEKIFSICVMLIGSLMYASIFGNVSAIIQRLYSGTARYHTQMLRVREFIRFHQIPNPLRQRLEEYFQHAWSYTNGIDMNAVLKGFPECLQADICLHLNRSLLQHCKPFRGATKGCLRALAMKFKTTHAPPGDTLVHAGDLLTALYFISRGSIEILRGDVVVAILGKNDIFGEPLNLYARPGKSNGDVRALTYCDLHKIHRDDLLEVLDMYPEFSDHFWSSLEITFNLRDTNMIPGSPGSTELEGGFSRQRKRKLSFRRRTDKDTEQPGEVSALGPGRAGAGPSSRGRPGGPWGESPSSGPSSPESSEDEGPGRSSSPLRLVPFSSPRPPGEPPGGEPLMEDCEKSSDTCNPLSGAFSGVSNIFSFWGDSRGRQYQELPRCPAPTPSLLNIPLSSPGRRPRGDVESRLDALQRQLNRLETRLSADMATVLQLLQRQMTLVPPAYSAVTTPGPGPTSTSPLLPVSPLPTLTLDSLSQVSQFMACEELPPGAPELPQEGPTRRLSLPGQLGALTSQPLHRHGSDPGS

| Structure (SMILES) | hERG current change (%, negative = inhibition) at 1uM [%] |
| --- | --- |
| CCNC(=S)Nc1cc(OCC)c(NC(=O)c2ccco2)cc1OCC | 8.82 |
| Nc1ncc(Br)cc1S(=O)(=O)NCCC(=O)NCCc1ccc(Cl)cc1 | 9.56 |
| COC(=O)CCSCC(=O)Nc1cc(C)on1 | -1.83 |
| N#C/C(=C\Nc1ccc2cn[nH]c2c1)c1nc(-c2ccc(Cl)cc2)cs1 | 12.2 |
| Cc1ccccc1NS(=O)(=O)c1cc(C(=O)NCCSC2CCCCC2)ccc1C | 13.5 |
| CCOc1ccccc1N1CC(C(=O)NNC(=O)c2cc(OC)c(OC)c(OC)c2)CC1=O (centres unmarked) | 4.35 |
| Cc1nc(-c2ccccc2O)n(S(=O)(=O)N(C)C)n1 | 10.4 |
| COc1ccc(S(=O)(=O)N2CCN(CCc3ccccc3)CC2)c(OC)c1 | 1.14 |
| Cc1ccc(NC2=NCC(=O)N2C2CCCC2)c(C)c1.Cl | 8.87 |
| COc1ccc(OCc2nnc(SCC(=O)Nc3ccccc3Cl)o2)cc1 | 11.5 |
| O=C(CCSc1nnc(-c2ccco2)o1)Nc1ccc(F)cc1 | 17.5 |
| O=C(Cc1ccccc1)N/N=C/c1ccccc1OCc1ccc(Cl)cc1 | 19.4 |
| CCOC(=O)C1=C(COC(=O)/C=C/c2ccccc2Cl)NC(=O)NC1C (centres unmarked) | 11.1 |
| CCOc1ccccc1CNC(=O)CCc1cn(CC)c2ccccc12 | 12.2 |
| CC(C)C(NC(=O)c1ccco1)C(=O)NCc1ccc(C(=O)O)cc1 (centres unmarked) | 17 |
| COc1cccc(CSc2nc3ccncc3[nH]2)c1 | -1.89 |
| O=C1C=C(NNC(=O)c2cccnc2)CC(c2ccco2)C1 (centres unmarked) | 8.64 |
| CCc1ccc(NC(=O)CSc2nnc(CNC(=O)c3ccc(OC)cc3)o2)cc1 | -3.85 |
| Cc1cc(/C=C2\SC(=O)NC2=O)c(C)n1-c1ccc(N2CCOCC2)cc1 | 12.1 |
| COc1cc(OC)cc(C(=O)NNC(=O)CNC(=O)c2ccc(Br)o2)c1 | 8.91 |
| CCCCn1c(=O)c(C(=O)NCCc2ccccc2)c(O)c2ccccc21 | 26.9 |
| Cc1oc(-c2ccccc2F)nc1CS(=O)(=O)CC(=O)NC(C)CCc1ccccc1 (centres unmarked) | 0.767 |

| Structure (SMILES) | hERG current change (%, negative = inhibition) at 1uM [%] |
| --- | --- |
| Cc1ccc(OCC(=O)OC(C)CN2CCCCC2)cc1.Cl (centres unmarked) | 12 |
| COc1cc(C(=O)NCc2nnc(SCC(=O)N3CCCc4ccccc43)o2)cc(OC)c1OC | 1.86 |
| Cc1nc(Cc2nnc(SC(C)C(=O)Nc3cccc(C#N)c3)o2)cs1 (centres unmarked) | 18.8 |
| Nc1nnnn1N=C1CCCCC1 | -3.38 |
| CCC(C)(C)n1nnnc1C(c1cc2cc3c(cc2[nH]c1=O)OCO3)N1CCCCC1 (centres unmarked) | -13.2 |
| COc1cc(CC(=O)NCCCc2ccccc2)cc(OC)c1OC | -22.4 |
| Cc1ccc(NC(=O)Cc2ccc3c(c2)OCCO3)cc1S(=O)(=O)N1CCCCC1 | 19.9 |
| Fc1ccccc1CN1CCC(Cc2ccccc2)CC1 | 8.72 |
| Cn1c(=O)c2c3c(sc2n2c(SCc4ccccc4)nnc12)CCCC3 | 6.74 |
| CN(C)S(=O)(=O)c1cccc(COC(=O)C2=COCCO2)c1 | 13.3 |
| Cc1cc(NC(=O)c2ccc([N+](=O)[O-])cc2)n(C)n1 | 16.7 |
| COc1ccc(OC)c(NC(=O)c2cc(-c3cc(Cl)ccc3O)n[nH]2)c1 | 8.16 |
| Clc1ccc(Cn2ncc3c(NCc4ccccc4)ncnc32)cc1 | 8.45 |
| COC(=O)C1(CCSC)NC(c2ccccc2F)C2C(=O)N(c3ccc4c(c3)OCCO4)C(=O)C21 (centres unmarked) | 8.33 |
| Cc1ccc(N2CC(C(=O)Nc3cc(C)on3)CC2=O)c(C)c1 (centres unmarked) | 6.95 |
| CC1Oc2ccccc2N(CC(=O)NC2CCCCC2)C1=O (centres unmarked) | 13 |
| CCCSc1nnc(NC(=O)CCc2ccccc2)s1 | 14.7 |
| CCCCCCc1nc(C(N)=O)c2[nH]c(=O)n(-c3ccc(OCC)cc3)c2n1 | 13.4 |
| CC(C)Cc1nc(NCCN2CCOCC2)c(C#N)c2c1COC(C)(C)C2 | -2.68 |
| CCCCn1c(N)c(N(CCOC)C(=O)Cn2c(=O)cnc3ccccc32)c(=O)[nH]c1=O | 12.9 |
| Cc1cccc(-c2cc(C(=O)N/N=C/c3cccnc3)c3ccccc3n2)c1 | 4.91 |
| C/C(=N\NC(=O)c1cc2ccccc2cc1O)c1cc2ccccc2o1 | 10.5 |

Source: paper PMC4336329 (PLoS ONE, 2015)
